Source: patent publication US9217032B2, “Methods for treating colorectal cancer” (LES LABORATOIRES SERVIER, priority 2010, dated 2015)
Positions count from the first letter of the chain named.

B1: MAb13: murine C-terminal anti-hPG monoclonal antibody, hybridoma 2C6C3C7, VH SEQ ID NO:60, VL SEQ ID NO:64 (antibody, V domains shown)
VH: EVQLVESGGGLVQPGGSLKLSCAASGFIFSSYGMSWVRQSPDRRLELVASINTFGDRTYYPDSVKGRFTISRDNAKNTLYLQMTSLKSEDTAIYYCARGTGTYWGQGTTLTVSS
VL: DVVLTQTPLTLSVTIGQPASISCKSSQSLLDSDGKTYLNWLLQRPGQSPKRLIYLVSKLDSGVPDRFTGSGSGTDFTLKISRVEAEDLGVYYCWQGTHFPQTFGGGTKLEIK
B2: MAb16: murine N-terminal anti-hPG monoclonal antibody, hybridoma 1E9D9B6, VH SEQ ID NO:61, VL SEQ ID NO:65 (antibody, V domains shown)
VH: QVQLQQSGAELVKPGASVKLSCKASGYTFTSYYMYWVKQRPGQGLEWIGEINPSNGGTNFNEKFKSKATLTVDKSSSTAYMQLSSLTSEDSAVYYCTRGGYYPFDYWGQGTTLTVSS
VL: B1 VL with L4M, Q17R, N39Y, K58E, F67I, F99S, Q101Y

Columns and labels:
Format in all cases: cell-based, human
[1] = test system: CRC1 primary colorectal cancer cells; assay: Spheroid formation by CRC1 cells in low adherence culture, monoclonal antibodies; conditions: CRC1, 3 μg/ml; p<0.05 one-way ANOVA with Bonferroni; FIG. 20
Method: CRC1 cells were obtained from a human colon carcinoma biopsy according to standard procedures. After being dissociated in Accumax (Sigma) for 45 minutes at 37° C., cells were plated in low adherence 96 well-plates (Corning) at a density of 100 cells per well in M11 medium (DMEM/F12 with 20 ng/ml EGF, 10 ng/ml FGF, 20 μg/ml insulin, N2 supplement, 2 μg/ml cyproflaxin, 5 μg/ml gentamycin and 3 mg/ml glucose). For each treatment arm, 10 wells were used. Starting on the first day, cells were treated twice daily with one of four different anti-progastrin monoclonal antibodies, MAb5, MAb8, MAb13 or MAb16 (3 μg/ml) or the same concentration of monoclonal antibody P3X63Ag8 (ATCC, Ref TIB-9) or medium with no antibody added as controls. Thereafter, treatment was performed once daily for 8 days. Spheres were photographed daily for subsequent counting. All experiments were carried out in blinded fashion. After the conclusion of the experiment, the number of spheres from each treatment art was counted.

[2] = test system: CRC1 primary colorectal cancer cells; assay: Pre-treatment of CRC1 cells: ALDH1 expressing cells by FACS; conditions: 72 hours in conventional adherent culture; FIG. 22
Method: (§1) CRC1 cells were obtained from a human colon carcinoma biopsy according to standard procedures. After being dissociated in Accumax (Sigma) for 45 minutes at 37° C., CRC1 cells (100,000 cells/well) were grown under conventional adherent culture conditions in serum free DMEM medium for 72 hours in the presence or absence of anti-hPG monoclonal antibodies MAb5, MAb8, MAb13 or MAb16. Experiments were carried out in blinded fashion. At the end of the treatment period, two different assays were performed on the cells. First, the percentage of cells expressing ALDH1, a marker of colorectal cancer stem cells, was determined by FACS. In the second assay, for each treatment group, 200 cells/well were plated in six wells of a low adherence 24-well plate in 500 μl of serum-free M11 medium supplemented with bFGF and EGF, and grown for 7 days without further treatment. At the end of this period, photographs were taken and the number of spheres per well was counted, and sphere surface area measured.

[3] = test system: CRC1 primary colorectal cancer cells; assay: Pre-treatment of CRC1 cells: spheroids in low adherence culture; conditions: 72 hours pre-treatment, then 7 days low adherence without antibody, FIG. 23, MAb5, MAb8, MAb16 p<0.05
Method: as §1

Row | Molecule | number of spheroids formed compared to non-specific antibody and medium alone [1] | number of CRC1 cells expressing ALDH1 compared to control [2] | number of spheroids formed after pre-treatment compared to control [3]
1 | B1 | effective to reduce the number spheroids | reduce the number CRC1 primary colorectal cancer cells expressing ALDH1 | reduced the number of spheroids compared to control, the effect did not reach statistical significance
2 | B2 | effective to reduce the number spheroids | reduce the number CRC1 primary colorectal cancer cells expressing ALDH1 | effective to reduce the number of spheroids
